Experimental data as given in ChEMBL document CHEMBL4888484, “Replenishing the malaria drug discovery pipeline: Screening and hit evaluation of the MMV Hit Generation Library 1 (HGL1) against asexual blood stage Plasmodium falciparum ,using a nano luciferase reporter read-out” (2022).
Among all 150,000 compounds or so, about 540 (0.36%) showed an effect of 50% or more. This is one part of the list.

Tested on: Plasmodium falciparum
Assay: Primary screen in NF54 nanoGlo assay, in single point, at 2uM, 72h; a lower Z score goes with more inhibition
Assay type: functional, Erythrocyte
Details: timepoint 72 hour

Q: Which results are given for `CN(CC1(C)CCOCC1)S(=O)(=O)c1cccs1`?
A: % Inhibition: 1%; Z score: -0.22

Q: `Cc1cc2nc3n(c(=O)c2n1CC(=O)Nc1cc(F)ccc1F)CCCC3` was tested. Which “% Inhibition” value did it give?
A: -13%

Q: What about the Z score of the same compound?
A: 1.51

Q: What does the source list for `COCC(NC(=O)c1cccc2[nH]c(=O)[nH]c12)C1CCCO1` (stereo unspecified)?
A: % Inhibition: 7%; Z score: -1.06

Q: `C#Cc1cccc(N(C)Cc2csc(N(CCOC)C(C)=O)n2)c1` was tested. Which “% Inhibition” value did it give?
A: -20%

Q: What about the Z score of the same compound?
A: 1.83

Q: How did the “% Inhibition” value turn out when `CNc1cc(C)nc(-c2cnn(CC(=O)Nc3nn(C)c4ccccc34)c2)n1` was run?
A: 20%

Q: And the Z score?
A: -2.54

Q: For `Cc1cc(CN(C)C(=O)c2cc(NC(=O)c3ccccc3)cc3ncn(C4CCCC4)c23)n[nH]1`, which “% Inhibition” value is on record?
A: 13%

Q: What about the Z score of the same compound?
A: -1.56

Q: For `Cc1nc2c(C(=O)N3CC[S+]([O-])CC(C)C3)cccc2o1` (stereo unspecified), which “% Inhibition” value is on record?
A: -18%

Q: What about the Z score of the same compound?
A: 1.87

Q: With `Cc1cc2c(N(C)Cc3cc(C)on3)nccn2n1` as the compound, how does the “% Inhibition” value read?
A: 33%

Q: What about the Z score of the same compound?
A: -3.76

Q: `CCN1CCN(c2cc3c(cc2S(=O)(=O)N2CCCCCC2)C(=O)Nc2ccccc2O3)CC1` was tested. Which “% Inhibition” value did it give?
A: 8%

Q: What about the Z score of the same compound?
A: -1.09

Q: With `NC(=O)[C@@H]1CC[C@H](NC(=O)C2(C(F)(F)F)CCC2)C1` as the compound, how does the “% Inhibition” value read?
A: -13%

Q: What about the Z score of the same compound?
A: 1.68

Q: What does the source list for `CCN1C(=O)NC(=O)C12CCN(c1nnc(C3CC3)o1)CC2`?
A: % Inhibition: -6%; Z score: 1.04

Q: `O=C(C[C@@]1(O)C(=O)N(CN2CCOCC2)c2ccccc21)c1ccc2c(c1)OCCO2` was tested. Which “% Inhibition” value did it give?
A: -6%

Q: And the Z score?
A: 0.7

Q: With `CN(C(=O)c1csc(-c2cc3ccccc3o2)n1)C1(C#N)CCC1` as the compound, how does the “% Inhibition” value read?
A: 10%

Q: What about the Z score of the same compound?
A: -1.51

Q: `Cc1nn(C)c(C)c1CCN/C(=N\c1cccc(F)c1)NC(=O)c1ccc(F)cc1` was tested. Which “% Inhibition” value did it give?
A: -10%

Q: And the Z score?
A: 1.86

Q: `CNC(=O)NC(=O)[C@H](C)Nc1cccc(COCC2CC2)c1` was tested. Which “% Inhibition” value did it give?
A: 3%

Q: And the Z score?
A: -0.52

Q: Which “% Inhibition” value does the source give for `Cc1ccsc1CN1CCC(C(=O)N2CCCC2)CC1` here?
A: -17%

Q: And the Z score?
A: 2.23

Q: Which “% Inhibition” value does the source give for `Cc1ccc(NS(=O)(=O)c2cnnn2C)c(C(=O)C(F)(F)F)c1` here?
A: -5%

Q: And the Z score?
A: 0.6

Q: For `O=C1O[C@H]2CN(c3ccnc4cc(Cl)ccc34)C[C@H]2N1C1CCCC1`, which “% Inhibition” value is on record?
A: -7%

Q: What about the Z score of the same compound?
A: 1.37

Q: With `CCC[C@H]1CN(C(=O)c2cc(C(C)C)n[nH]2)C[C@@H]1N` as the compound, how does the “% Inhibition” value read?
A: -5%

Q: And the Z score?
A: 0.68

Q: Which results are given for `CCc1cccc2c(C3CCN(C(=O)c4cncnc4N)CC3)c[nH]c12`?
A: % Inhibition: -6%; Z score: 0.57

Q: Which results are given for `CCC(CC)(CN(CC(CC)(CC)OC)C(=O)c1cn(C)c(=O)[nH]c1=O)OC`?
A: % Inhibition: -9%; Z score: 1.25

Q: What does the source list for `C[C@@H](c1cccnc1)N(C)Cc1ncccc1C(F)(F)F`?
A: % Inhibition: 6%; Z score: -0.88

Q: `C[C@H](NS(=O)(=O)c1cc(S(C)(=O)=O)ccc1Cl)C(N)=O` was tested. Which “% Inhibition” value did it give?
A: -6%

Q: What about the Z score of the same compound?
A: 0.71
